Drawing on PubChem BioAssay AID463173 (ICCB-Longwood Screening Facility, Harvard Medical School, 2010), this text covers survival for 58 compounds.

Molecules are shown by their SMILES. Screen size: about 52,000 compounds; about 4,300 (8.3%) were called active. No stated cut-off is given here; in the data, active means survival mostly below about 52% (no sharp cut-off); inactive means mostly above about 56%. The list shows a part of the results.

The test system of this test is DeltatarO mutant. In words: S. aureus survival, RN4220 and DeltatarO strains – OD600, teichoic acid synthesis inhibitors, primary screen (AID 463173). To be noted: S. aureus RN4220 wild type/DeltatarO growth, OD600, 18 h, stronger effect = lower value, screened at 18.75 µg/mL (by protocol).
Turning to `CCCCN(C)C(=O)c1cn(C)c2ccc(S(=O)(=O)N3CCC(C)CC3)cc2c1=O`, the survival is inactive: 91%.

On to `Cc1cccc(N2C(=O)c3cccc4c(N5CCNCC5)ccc(c34)C2=O)c1`, for which the survival was inactive: 95%. With `COc1ccccc1NC(=O)Cn1c(=O)n(Cc2ccccc2)c(=O)c2c1c1cc(C)ccc1n2C`, the survival was inactive: 101%. As to `O=C(Cn1ccc2cc(S(=O)(=O)N3CCCCC3)ccc21)NCCc1ccccc1Cl`, the survival was active: -4%. To `CCCCC(=O)OC1=C(C(=O)c2ccccc2)N(CCC)S(=O)(=O)c2ccccc21` belongs active: 18%; to `COc1ccc(C(=O)CN2CCC(N3CCCCC3)CC2)cc1`, inactive: 92%. As to `Cc1ccsc1CN1CCc2nc(Nc3ccccc3)ncc2C1`, the survival is inactive: 61%. To `CC(SC12CC3CC(CC(C3)C1)C2)C(=O)O` (stereo not drawn) belongs inactive: 86%; to `CC(NC(=O)CSc1n[nH]c(-c2ccccc2Cl)n1)c1nc2ccccc2[nH]1` (stereo not drawn), inactive: 72%. To `CNC(=O)CCCN1C(=O)c2cccnc2Sc2ccccc21` belongs inactive: 86%; to `CCOc1cc(C(=O)NCCc2sc(-c3ccc(F)cc3)nc2C)cc(OCC)c1OCC`, inactive: 125%. In the case of `Cc1nc2ccc(S(=O)(=O)N(CC(=O)Nc3ccc(F)cc3F)Cc3ccccc3)cc2s1`, the survival is inactive: 81%.

For `CCOc1ccc(NC(=O)c2ccc3[nH]c(C)c(C)c3c2)cc1`, the survival is inactive: 97%. Regarding `Cc1ccc(S(=O)(=O)Nc2cccc(-c3cn4cccc(C)c4n3)c2)c(C)c1`, the survival was inactive: 75%.

For `O=C(Cn1c(=O)c2cccn2c2cccnc21)NCc1cccc(F)c1`, the survival was inactive: 77%. To `O=C(Cn1c(SCc2ccccc2F)nc2ccncc21)Nc1ccccc1C(F)(F)F` belongs inactive: 66%; to `CCc1ccc(S(=O)(=O)c2nnn3c2nc(Nc2cc(OC)ccc2OC)c2sccc23)cc1`, inactive: 88%. For `COc1ccccc1Nc1sc(C(=O)c2ccc(C)cc2C)c(N)c1S(=O)(=O)c1ccccc1` the value was inactive: 67%; for `O=C(NCC1CCCO1)C1CCCN1C(=O)Nc1ccc(Cl)cc1` (stereo not drawn), inactive: 84%; for `COc1ccc(CC(=O)Nc2sc3c(c2C(=O)Nc2ccccc2)CCCCC3)cc1`, inactive: 68%.

In the case of `O=C(c1cnn(-c2ccc(F)cc2)c1-n1cccc1)N1CCN(c2ccc(F)cc2)CC1`, the survival was inactive: 87%.

`CCNc1nc(NCc2ccc(F)cc2)c2cnn(C)c2n1`: the survival was inactive: 85%. In the case of `CC1=C(C(=O)Nc2cccc(Cl)c2C)C2(CCCCCC2)OC1=O`, the survival is active: 0%. To `O=C(Nc1ccc(F)cc1)c1csc2c1CCCCC2` belongs inactive: 63%; to `COc1cccc(N2CC(NC(=O)c3ccc(S(=O)(=O)N4CCOCC4)cc3)CC2=O)c1` (stereo not drawn), inactive: 117%; to `CC1CCCCN1C(=O)c1cc(-c2ccccc2)on1` (stereo not drawn), inactive: 88%. For `O=C(NCCc1ccccc1)c1nc(-c2ccc(Cl)cc2)n2c1CCCCC2` the value was inactive: 90%. For `COc1ccc(CNc2nc3c(-c4ccccc4)nnn3c3ccccc23)cc1` the value was inactive: 69%; for `Cc1c(C(=O)Nc2nc(-c3ccc(F)cc3)ns2)oc2ccc(Cl)cc12`, inactive: 72%. Regarding `Cc1ccc(CCNC(=O)CS(=O)Cc2nc(-c3ccccc3Cl)oc2C)cc1` (stereo not drawn), the survival is inactive: 64%.

For `O=C(Cc1ccccc1)Nc1sc2c(c1C(=O)Nc1ccc(Br)cc1)CCC2`, the survival was inactive: 55%. For `Cc1ccc2oc(C(=O)Nc3cccc(Cl)c3)cc(=O)c2c1` the value was inactive: 92%. To `Cc1cc(NC(=O)c2ccc(Cl)c(Cl)c2)ccc1NC(=O)c1ccco1` belongs inactive: 76%; to `COc1ccccc1C(=O)Nc1ccccc1OCc1cc(=O)n2ccccc2n1`, inactive: 88%. To `N#CC(C#N)=C(N)/C(C#N)=C/c1ccco1` belongs inactive: 85%; to `[O-]/[N+](Cc1ccccc1F)=N\O`, inactive: 97%. With `CCc1ccc2occ(CC(=O)Nc3ccccc3C(F)(F)F)c2c1`, the survival is inactive: 115%. To `CC(C)c1ccc(Nc2cc(C(=O)NC3CCCCC3)c3ccccc3n2)cc1` belongs inactive: 90%; to `CCc1cccc(-n2c(=O)c3cccnc3n2CC(=O)Nc2ccc(F)c(C)c2)c1`, inactive: 80%; to `COc1ccccc1NC(=O)CSc1nc(-c2ccc(C(C)(C)C)cc2)c(C#N)c(=O)[nH]1`, inactive: 52%. To `Cc1nc2cc(C(=O)N3CCN(C)CC3)ccc2n1-c1ccccc1` belongs inactive: 107%; to `O=C(NCCn1ccc2ccccc21)c1ccc(Cl)cc1`, inactive: 87%; to `Cc1cc(C)cc(C(=O)Nc2ccccc2N2CCOCC2)c1`, inactive: 80%. Regarding `CCc1ccccc1OCC(=O)Nc1ccc(S(=O)(=O)Nc2nc(C)cc(C)n2)cc1`, the survival was inactive: 75%. For `CCOc1ccccc1-n1nnc(-c2nsc(NC(=O)c3ccc(C)cc3)n2)c1C` the value was inactive: 77%. For `CCOc1ccc(C(=O)c2oc3ccccc3c2NC(=O)Cc2coc3ccc(CC)cc23)cc1` the value was inactive: 72%. For `Cc1cccc(NC(=O)N2CCC3(CC2)Oc2ccccc2C(=O)N3Cc2ccccc2F)c1C` the value was inactive: 71%; for `O=C(Cc1ccc(F)cc1)Nc1nnc2n1CCS2`, active: 52%. Consider `COc1cccc(C(=O)Nc2c(C(=O)N3CCN(c4ccc(F)cc4)CC3)oc3ccccc23)c1`, for which the survival was inactive: 83%. For `COc1cc2ccccc2cc1C(=O)Nc1ccc2oc(-c3ccc(F)cc3Cl)nc2c1`, the survival was inactive: 59%.

Take `CCc1ccc(CNC(=O)c2c(C)oc3ncnc(N4CCOCC4)c23)cc1`: the survival is inactive: 128%. For `COc1cc(C(=O)n2nc(C)c(Sc3ccc(Cl)cc3)c2C)cc(OC)c1OC` the value was inactive: 57%.

Turning to `CC(=O)N1CCc2cc(S(=O)(=O)NC(C(=O)Nc3ccc(C)cc3C)C(C)C)ccc21` (stereo not drawn), the survival was inactive: 75%. To `COc1ccc(NC(=O)C2CCCN(S(=O)(=O)c3ccc(Br)s3)C2)cc1` (stereo not drawn) belongs inactive: 91%; to `CCOC(=O)c1c(-c2ccc(C)cc2)csc1NC(=O)c1cc(=O)c2ccc(C)cc2o1`, inactive: 109%.

With `CSc1cccc(Nc2cc(C(=O)NCCCN(C)c3ccccc3)c3ccccc3n2)c1`, the survival was inactive: 82%. Consider `COc1ccc(NC(=O)Cn2c(=O)n(Cc3nc(-c4ccccc4)no3)c(=O)c3ccccc32)cc1Cl`, for which the survival was inactive: 102%. For `COc1ccc(/C=C/C(=O)Nc2nc3n(n2)C(c2ccc(F)cc2)C=C(c2ccccc2)N3)cc1` (stereo not drawn) the value was active: 42%.
